Source: the supplement of paper PMC9174493
This is one part of the list. Single values of this set are uncertain. Values with irradiation are relative to irradiated vehicle.

The molecules below were run on A549-Dual (assay: NF-kB reporter (SEAP) activity, viability-corrected, relative to vehicle (fold change vs vehicle); higher = more activation of STING-IRF / NF-kB immune response reporter). Details: 10 µM; irradiation: 8 Gy/4 fr.
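Also: viability correction based on the alamar blue assay, with concentrations leaving 10% survival or less dropped.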

Row | SMILES | NF-kB reporter
1 | Cl.Nc1ccn(C2OC(CO)C(O)C2O)c(=O)n1 (stereo not given) [Cytarabine hydrochloride] | 0.839
2 | CC(=O)OC(C)C(C)C(=O)OCC12C3CC4(C)C(=CCC5C6(C)CCC(OC7OC(C(=O)[O][Na])C(OC8OC(CO)C(O)C(O)C8O)C(O)C7OC7OCC(O)C(O)C7O)C(C)(CO)C6CCC54C)C1CC(C)(C)C(O3)C2O (stereo not given) [Sodium Aescinate] | 1.59
3 | CCC(=O)OC1(C(=O)SCF)C(C)CC2C3CC(F)C4=CC(=O)C=CC4(C)C3(F)C(O)CC21C (stereo not given) [Fluticasone propionate] | 0.473
4 | CCCCC1(COC(=O)CCC(=O)O)C(=O)N(c2ccccc2)N(c2ccccc2)C1=O [Suxibuzone] | 1.54
5 | CS(=O)(=O)Nc1cc2occ(NC=O)c(=O)c2cc1Oc1ccccc1 [Iguratimod] | 0.653
6 | COc1cc2nccc(Oc3ccc(NC(=O)Nc4cc(C)on4)c(Cl)c3)c2cc1OC [Tivozanib (AV-951)] | 0.612
7 | Cc1ccc(S(=O)(=O)O)cc1.NC(=O)c1cccc2cn(-c3ccc(C4CCCNC4)cc3)nc12 (stereo not given) [Niraparib (MK-4827) tosylate] | 0.9
8 | CC(C)OC(=O)CCC/C=C\CC1C(O)CC(O)C1CCC(O)CCc1ccccc1 (stereo not given) [Latanoprost] | 0.385
9 | O=c1[nH]cc(F)c(=O)[nH]1 [Fluorouracil (5-Fluoracil, 5-FU)] | 1.04
10 | CC1(C(=O)O)CCC2(C)CCC3(C)C(=CC(=O)C4C5(C)CCC(OC6OC(C(=O)O)C(O)C(O)C6OC6OC(C(=O)O)C(O)C(O)C6O)C(C)(C)C5CCC43C)C2C1.N.N (stereo not given) [Diammonium Glycyrrhizinate] | 1.31
